Experimental findings from article PMC4336329 (PLoS ONE, 2015) are described below.

Structures are written as SMILES. The whole screen tested about 310,000 compounds, of which about 14,000 (4.5%) showed an effect of 50% or more. The effect is printed as a negative number. The list shows a part of the results.
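Also: peak tail current of the secondary pulse compared with the same well before compound.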

Sequence of human ether-à-go-go-related gene (hERG) potassium channel (Q12809 whole entry, looked up): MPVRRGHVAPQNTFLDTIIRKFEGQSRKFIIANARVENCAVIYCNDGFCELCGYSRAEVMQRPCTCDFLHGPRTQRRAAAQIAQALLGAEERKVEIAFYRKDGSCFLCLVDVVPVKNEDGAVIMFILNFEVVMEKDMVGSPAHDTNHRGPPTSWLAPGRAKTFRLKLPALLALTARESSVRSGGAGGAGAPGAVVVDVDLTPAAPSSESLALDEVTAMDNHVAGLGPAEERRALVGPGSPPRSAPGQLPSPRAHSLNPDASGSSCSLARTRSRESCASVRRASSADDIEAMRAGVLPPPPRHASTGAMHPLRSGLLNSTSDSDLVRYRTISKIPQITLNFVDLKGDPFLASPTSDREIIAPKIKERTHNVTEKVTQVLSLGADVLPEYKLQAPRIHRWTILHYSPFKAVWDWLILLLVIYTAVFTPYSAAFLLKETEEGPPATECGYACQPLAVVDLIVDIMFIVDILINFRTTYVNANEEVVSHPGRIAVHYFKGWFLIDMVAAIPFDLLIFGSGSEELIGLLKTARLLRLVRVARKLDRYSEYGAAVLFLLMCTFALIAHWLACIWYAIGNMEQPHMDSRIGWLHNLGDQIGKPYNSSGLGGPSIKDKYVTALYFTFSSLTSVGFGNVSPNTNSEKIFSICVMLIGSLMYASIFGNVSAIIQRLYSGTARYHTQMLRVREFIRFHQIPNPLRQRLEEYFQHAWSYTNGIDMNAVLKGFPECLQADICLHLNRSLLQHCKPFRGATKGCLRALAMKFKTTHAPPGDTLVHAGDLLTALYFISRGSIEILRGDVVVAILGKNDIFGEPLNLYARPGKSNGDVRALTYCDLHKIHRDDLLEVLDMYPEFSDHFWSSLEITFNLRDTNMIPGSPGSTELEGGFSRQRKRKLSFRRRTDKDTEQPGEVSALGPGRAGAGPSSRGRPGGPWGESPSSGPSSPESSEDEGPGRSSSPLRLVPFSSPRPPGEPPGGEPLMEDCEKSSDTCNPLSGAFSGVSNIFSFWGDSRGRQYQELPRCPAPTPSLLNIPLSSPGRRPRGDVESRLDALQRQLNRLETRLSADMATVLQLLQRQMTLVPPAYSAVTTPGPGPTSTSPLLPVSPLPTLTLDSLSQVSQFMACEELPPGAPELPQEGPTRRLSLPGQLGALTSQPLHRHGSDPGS

This test addresses human ether-à-go-go-related gene (hERG) potassium channel (human, UniProt Q12809). The test is described as follows: primary screen, population patch clamp on CHO cells stably expressing hERG.
Turning to `CCNC(=O)C(=O)N1CCC2(CC1)OCCN2S(=O)(=O)c1ccc(C)cc1`, the “hERG current change (%, negative = inhibition) at 10uM” value is recorded as 2.81%.

Consider `O=C(Nc1cccc(Cl)c1)Nc1ccon1`, for which the “hERG current change (%, negative = inhibition) at 10uM” value was determined as 9.69%.

In the case of `CC(=O)Nc1sc(C)c(C)c1C(=O)OCCOc1ccccc1`, the “hERG current change (%, negative = inhibition) at 10uM” value is 15.3%.

Take `COc1ccc(/C=N/Nc2cc(N3CCOCC3)ncn2)c(OC)c1`: the “hERG current change (%, negative = inhibition) at 10uM” value came to 2.69%.

In the case of `c1cn(CCCNC2=NCCCCC2)cn1`, the “hERG current change (%, negative = inhibition) at 10uM” value worked out at 4.23%.

Consider `c1ccc(CCn2nnc3ccccc32)cc1`, for which the “hERG current change (%, negative = inhibition) at 10uM” value was -9.57%.

With `COc1cccc(OCC(=O)N2CCN(C)CC2)c1`, the “hERG current change (%, negative = inhibition) at 10uM” value is listed as -10.1%.

In the case of `Cc1cc(C(=O)N2CCC(C)CC2)on1`, the “hERG current change (%, negative = inhibition) at 10uM” value is 1.18%.

In the case of `c1nc(NC2CCCCCC2)c2[nH]cnc2n1`, the “hERG current change (%, negative = inhibition) at 10uM” value amounted to 17.5%.

For the molecule `O=C(Cc1csc(NC(=O)Nc2ccc(Cl)cc2)n1)NC1CCCC1`, the “hERG current change (%, negative = inhibition) at 10uM” value was found to be 9.13%.

For `NNC(=O)COc1ccc(-c2nccc(-c3ccc(F)cc3)n2)cc1`, the “hERG current change (%, negative = inhibition) at 10uM” value was 16.1%.

Regarding `C/C=C\C=C\C(=O)N1CC2(CC(c3cccc(NC(=O)COc4ccc(Cl)cc4)c3)=NO2)C[C@H]1C(N)=O` (stereo partly shown), the “hERG current change (%, negative = inhibition) at 10uM” value is -76.9%.

In the case of `CCOC(=O)c1nc(Nc2cc(Cl)ccc2OC)c2ccccc2n1`, the “hERG current change (%, negative = inhibition) at 10uM” value was 6.83%.

For the molecule `CC(C)N(C(=S)Nc1cccc(S(=O)(=O)N(C)C)c1)c1ccccc1`, the “hERG current change (%, negative = inhibition) at 10uM” value turned out to be 1.6%.

As to `CCn1c(=O)c(C(=O)CN2CC(C)OC(C)C2)c(N)n(Cc2ccccc2)c1=O` (stereo not shown), the “hERG current change (%, negative = inhibition) at 10uM” value was -32.6%.

With `O=C(NCc1ccccc1)c1ccc(C(=O)N(C2CCCCC2)C2CCCCC2)cc1`, the “hERG current change (%, negative = inhibition) at 10uM” value is on record as -10.3%.

On to `COc1cc(C(=O)NNC(=O)c2cc(-c3ccccc3)n[nH]2)cc(OC)c1C`, for which the “hERG current change (%, negative = inhibition) at 10uM” value is reported as -3.32%.

On to `COc1ccc(N2C(=O)CC(SC(C)C)C2=O)cc1` (stereo not shown), for which the “hERG current change (%, negative = inhibition) at 10uM” value stood at 3.98%.

Take `Cc1ccc2c(c1)N(C(=O)CCC(=O)NCCCN1CCN(C)CC1)CC(C)O2` (stereo not shown): the “hERG current change (%, negative = inhibition) at 10uM” value came out at 9.95%.

For `CCCNc1c(N)n(-c2ccccc2)c(=O)[nH]c1=O`, the “hERG current change (%, negative = inhibition) at 10uM” value stood at 6.25%.

As to `CCOc1ccc(C(=O)COC(=O)CNC(=O)C2CCCCC2)cc1`, the “hERG current change (%, negative = inhibition) at 10uM” value is -0.0501%.

As for `CCc1cc(C(=O)N(Cc2ccccc2)c2c(N)n(CCOC)c(=O)[nH]c2=O)sc1C`, the “hERG current change (%, negative = inhibition) at 10uM” value is on record as -0.171%.

Consider `CSCCC(NC(=O)COc1ccccc1)C(=O)N(C)Cc1ccc(F)cc1` (stereo not shown), for which the “hERG current change (%, negative = inhibition) at 10uM” value is recorded as -50.3%.

With `COCCN(C(=O)COC(=O)/C=C/c1ccco1)c1c(N)n(Cc2ccccc2)c(=O)[nH]c1=O`, the “hERG current change (%, negative = inhibition) at 10uM” value is 12.2%.

`CCC1(CCCC(=O)c2ccc(F)cc2)C(=O)NC(=S)NC1=O`: the “hERG current change (%, negative = inhibition) at 10uM” value is -3.66%.

Turning to `CCOC(=O)CNC(=O)N1CCC(CCC(=O)N(C)Cc2ccccc2)CC1`, the “hERG current change (%, negative = inhibition) at 10uM” value is on record as 9.99%.

As to `CNc1c(NS(=O)(=O)c2cc(OC)ccc2OC)c(=O)oc2ccccc12`, the “hERG current change (%, negative = inhibition) at 10uM” value came to 10.3%.

For `CC(CC1C(C#N)=C(N)SC(N)=C1C#N)c1ccccc1` (stereo not shown), the “hERG current change (%, negative = inhibition) at 10uM” value is 1.38%.

As to `CCN(CC)c1ccc(NC(=O)C2CCC(CNc3c(N4CCCC4)c(=O)c3=O)CC2)c(C)c1` (stereo not shown), the “hERG current change (%, negative = inhibition) at 10uM” value was found to be 18.5%.

In the case of `CN=c1scc(C)n1/N=C/c1ccc(O)c(O)c1O`, the “hERG current change (%, negative = inhibition) at 10uM” value turned out to be 23.8%.

In the case of `Cc1ccc(OCCC(=O)N(Cc2ccccc2)c2c(N)n(Cc3ccccc3)c(=O)[nH]c2=O)cc1`, the “hERG current change (%, negative = inhibition) at 10uM” value was -6.6%.

For the molecule `Cc1ncc(CO)c2cc(C(=O)Nc3cccc(F)c3)c(=Nc3cccc(C(N)=O)c3)oc12`, the “hERG current change (%, negative = inhibition) at 10uM” value is recorded as 17.2%.

With `O=C(CCN1C(=O)S/C(=C/c2ccc(Cl)cc2)C1=O)N1CCOCC1`, the “hERG current change (%, negative = inhibition) at 10uM” value was -1.83%.

Consider `Cc1cc(C(=O)Nc2ccc(F)cc2F)on1`, for which the “hERG current change (%, negative = inhibition) at 10uM” value is on record as 17.5%.

Regarding `Cc1ccc(C(=O)Cn2cc([N+](=O)[O-])nc2C)cc1`, the “hERG current change (%, negative = inhibition) at 10uM” value is recorded as 2.57%.

`COc1ccc(CCNS(=O)(=O)c2cccs2)cc1`: the “hERG current change (%, negative = inhibition) at 10uM” value was -1.5%.

For `CN(C)/C=C(\C#N)c1nc2ccccc2[nH]1`, the “hERG current change (%, negative = inhibition) at 10uM” value turned out to be 0.759%.

On to `Cc1nn(Cc2ccccc2Cl)c(Cl)c1C(=O)OC(C(=O)NC(N)=O)C(C)C` (stereo not shown), for which the “hERG current change (%, negative = inhibition) at 10uM” value worked out at 4.02%.

Turning to `CN(C)c1cccc(C(=O)OCC(=O)Nc2ccccc2Cl)c1`, the “hERG current change (%, negative = inhibition) at 10uM” value is 17.9%.

On to `CCOc1ccc(-c2cc(C(=O)N/N=C/c3ccc(O)cc3)c3ccccc3n2)cc1`, for which the “hERG current change (%, negative = inhibition) at 10uM” value worked out at 4.93%.

As to `OC(CNCC1CCCCC1)COc1ccccc1` (stereo not shown), the “hERG current change (%, negative = inhibition) at 10uM” value was -0.428%.

In the case of `CCn1c2ccccc2c2nnc(SCC(=O)Nc3ncccn3)nc21`, the “hERG current change (%, negative = inhibition) at 10uM” value is -12.1%.

As to `Cc1ccc(C2C(C(=O)c3cc4ccccc4o3)=C(O)C(=O)N2CCN2CCOCC2)o1` (stereo not shown), the “hERG current change (%, negative = inhibition) at 10uM” value worked out at 8%.

In the case of `Cc1cc(-c2nnc(SCC(=O)c3ccc(F)cc3)o2)no1`, the “hERG current change (%, negative = inhibition) at 10uM” value was determined as 17.2%.

Turning to `Cc1ccc(N2CCN(c3ccc(C)cc3)C2c2cccnc2)cc1`, the “hERG current change (%, negative = inhibition) at 10uM” value was determined as 17.6%.

For `CCOC(=O)c1c(C)n(-c2ccccc2)c2ccc(OCCN(C)C)cc12`, the “hERG current change (%, negative = inhibition) at 10uM” value is recorded as -10.6%.
